Test results taken from PubChem BioAssay AID488969 (Vanderbilt High Throughput Screening Facility, 2010).
Over roughly 110,000 compounds, “z-score” has its median near -0.1; the highest 2% begin near 2. The list shows a part of the results. The source made the active and inactive calls.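 How the source made its calls: active means z-score in the third read window above 3 or below -3; inactive means the rest.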

molecular target: Metabotropic glutamate receptor 8 (Rattus norvegicus) (UniProt P70579); test: rat mGluR8 modulators via GIRK flux, primary screen, cell-based, thallium flux, HTS (AID 488969); conditions: HEK293 rat mGluR8, GIRK (G protein-gated inwardly rectifying potassium channel) thallium flux, FluoZin2; at 10 µM; stronger effect = higher value; submaximal glutamate (EC20) added with thallium
Sequence of UniProt P70579 (P70579 whole entry, looked up): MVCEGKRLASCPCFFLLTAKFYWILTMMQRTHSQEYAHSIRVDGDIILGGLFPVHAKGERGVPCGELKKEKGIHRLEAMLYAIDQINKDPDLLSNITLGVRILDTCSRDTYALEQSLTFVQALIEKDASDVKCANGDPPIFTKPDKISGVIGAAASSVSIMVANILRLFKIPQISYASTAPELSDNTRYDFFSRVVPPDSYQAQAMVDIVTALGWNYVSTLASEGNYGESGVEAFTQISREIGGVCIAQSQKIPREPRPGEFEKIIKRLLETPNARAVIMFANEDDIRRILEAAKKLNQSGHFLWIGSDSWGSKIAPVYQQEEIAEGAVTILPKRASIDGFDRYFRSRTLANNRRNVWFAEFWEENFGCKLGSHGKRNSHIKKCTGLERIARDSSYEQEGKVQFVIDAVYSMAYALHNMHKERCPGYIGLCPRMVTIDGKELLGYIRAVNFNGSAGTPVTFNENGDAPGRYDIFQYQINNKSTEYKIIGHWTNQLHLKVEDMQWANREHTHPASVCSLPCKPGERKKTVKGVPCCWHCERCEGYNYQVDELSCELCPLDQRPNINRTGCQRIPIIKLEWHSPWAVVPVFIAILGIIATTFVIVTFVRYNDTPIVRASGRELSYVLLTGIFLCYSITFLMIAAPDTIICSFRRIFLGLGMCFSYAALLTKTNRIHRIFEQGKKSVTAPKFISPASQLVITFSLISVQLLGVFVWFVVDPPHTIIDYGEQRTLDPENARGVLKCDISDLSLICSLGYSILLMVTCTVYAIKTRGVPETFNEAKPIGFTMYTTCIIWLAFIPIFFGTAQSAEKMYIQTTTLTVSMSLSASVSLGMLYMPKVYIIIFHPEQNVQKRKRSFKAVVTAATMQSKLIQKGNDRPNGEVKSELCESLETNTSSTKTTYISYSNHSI

In order of falling z-score:
1. O=C(Nc1cccc(Oc2ccc3c(c2)C(=O)NC3=O)c1)c1cccs1  0.83
2. COc1cc(CC(=O)Nc2ncc(C)s2)cc(OC)c1OC  0.453
3. Cc1ccccc1N1C(=O)C2ON(c3ccccc3)C(c3ccncc3)C2C1=O (stereo unspecified)  0.333
4. CCOC(=O)c1ccc(NCc2ccc3c(c2)OCO3)cc1  0.158
5. CCOC(=O)c1sc(NC(=O)c2ccc(S(=O)(=O)N(CC)CC)cc2)nc1C  0.157
6. O=C(CNCC1CCCCC1)Nc1ccccc1N1CCCCC1  0.155
7. Fc1ccc(NCc2cccnc2)cc1  0.127
8. Cc1nc(SCC(=O)NCCc2ccc(Cl)cc2)nc(C)c1C  0.124
9. Cc1ccc(S(=O)(=O)N2CCCC2C(=O)OCc2ccco2)cc1 (stereo unspecified)  0.122
10. O=C(COC(=O)c1ccccc1-c1nc2ccccc2s1)NC1CCS(=O)(=O)C1 (stereo unspecified)  0.11
11. CC(C)OC(=O)CC(=O)CSc1nc(-c2ccc(F)cc2)cc(-c2ccccc2)c1C#N  0.0859
12. CC1(C)Cc2nc3oc4c(=O)n(CC(=O)Nc5ccccc5)cnc4c3cc2CO1  0.0779
13. CC(=O)Nc1nc(SCCCc2ccccc2)n[nH]1  0.0586
14. Cc1ccc(C(=O)NCc2ccco2)cc1S(=O)(=O)N1CCCCC1  0.0491
15. C=CCNc1oc(-c2ccc(OCC)cc2)nc1C#N  0.0195
16. O=C(NCCOc1ccccc1Cl)C(=O)Nc1ccccc1  -0.00117
17. COc1cc(O)c(CCC(=O)c2cc(OC)c(OC)c(OC)c2)c(OC)c1  -0.0311
18. O=C(Cc1ccccc1)NCC(=O)OCC(=O)c1ccc(Cl)c([N+](=O)[O-])c1  -0.0417
19. C=C(C)CSc1nnc(-c2ccc(OC)cc2)n1N  -0.0581
20. COc1ccc2c(c1)CCc1c(C(=O)NCc3ccc(Cl)cc3)noc1-2  -0.0809
21. COc1ncnc2c1sc1nc(-c3ccccc3)c3c(c12)CCCC3  -0.0945
22. O=C(CSc1nnnn1-c1ccccc1F)Nc1nc2ccccc2s1  -0.104
23. COc1ccc(/C=N/n2c(C)nnc2C)c(OC)c1  -0.105
24. COc1ccc(/C=C/C(=O)c2ccc3c4c(cccc24)CC3)cc1OC  -0.107
25. CCCCCCC1CCC(C(=O)Nn2c(C)nc3ccccc3c2=O)CC1 (stereo unspecified)  -0.122
26. O=C(Cc1cn(Cc2cccc(Cl)c2)c2ccccc12)N1CCCCCC1  -0.135
27. Cc1cccc(S(=O)(=O)N(CC(=O)Nc2ccccc2C)Cc2ccco2)c1  -0.15
28. Nc1ccccc1OCP(=O)(c1ccccc1)c1ccccc1  -0.151
29. COCCn1c(SCC(=O)Nc2cccc(S(N)(=O)=O)c2)nc2ccccc21  -0.157
30. CCC(=O)Nc1c(C)c(CC)nc2ccccc12  -0.158
31. COc1ccc(NC(=O)c2sc(N3CCOCC3)nc2-c2ccccc2)c(OC)c1  -0.171
32. COc1cccc(-c2ccc(C#N)c(SCC(=O)NCCc3ccccc3)n2)c1  -0.178
33. COC(=O)c1cn(CC(=O)NC2CCCCCC2)c2ccccc12  -0.191
34. Nc1nc(CSc2ncn(-c3ccccc3)n2)cs1  -0.194
35. c1ccc(-c2ccccc2OCCn2cncn2)cc1  -0.2
36. Cc1nn(Cc2ccccc2)c(=O)n1N(C)c1ncc(C(F)(F)F)cc1Cl  -0.209
37. Cc1ccc(S(=O)(=O)NC2=NCN(CCOC(=O)c3ccc([N+](=O)[O-])cc3)CN2)cc1  -0.21
38. COc1cccc(C2C=C(Nc3ccccc3)C(=O)N2c2ccccc2)c1 (stereo unspecified)  -0.22
39. CC(C)CCNc1nnnc2c1sc1nc(N3CCOCC3)c3c(c12)CC(C)(C)SC3  -0.222
40. O=C(Nc1ccc2c(c1)OCO2)c1ccc(S(=O)(=O)NCC2CCCO2)cc1 (stereo unspecified)  -0.247
41. O=C(O)C1CCCN1S(=O)(=O)c1cccs1 (stereo unspecified)  -0.248
42. CCN(CC)S(=O)(=O)c1ccc2nc(SC)sc2c1  -0.259
43. COc1ccc(C(=O)Nc2ccc(F)cc2F)cc1  -0.284
44. C=CCNc1nc(Cl)ncc1F  -0.289
45. O=S(=O)(Cc1ccccc1)N1CCCCC1  -0.342
46. Cc1cc(NC(=O)c2cc3n(n2)C(C(F)(F)F)CC(c2ccco2)N3)n(-c2ccccc2)n1 (stereo unspecified)  -0.368
47. CCOc1cc(/C=N\O)cc(Cl)c1OCC  -0.425
48. CN(CCOc1ccccc1)c1ccc(S(=O)(=O)N2CCCCC2)cn1  -0.471
49. Cc1ccc(C(C(=O)NC2CCCC2)N(C(=O)CNC(=O)c2cccs2)c2cccnc2)o1 (stereo unspecified)  -0.492
50. CN(c1ccc(C(=O)Nc2ccccc2Sc2ccccc2)cc1)S(C)(=O)=O  -0.6
51. CCOC(=O)C(C)(C)Sc1nc2c(cnn2-c2ccc(Cl)cc2)c(=O)[nH]1  -0.781
52. O=C(c1cc2c(s1)CCCCC2)N1CCN(c2ncccn2)CC1  -0.923
53. CCOC(=O)N1CCC(NC(=O)C2CCC(Cn3c(=O)[nH]c4ccccc4c3=O)CC2)CC1 (stereo unspecified)  -1
54. O=c1oc(-c2ccccc2[N+](=O)[O-])nc2ccccc12  -1.17
55. CC(C)(C)C(=O)Nc1cccc(-c2nc3ccccc3c(=O)o2)c1  -1.19

In the case of `CCOC(=O)c1ccc(NC(=O)Nc2ccc(OC)c(OC)c2)cc1`, the z-score is reported as active: 6.79.
